{
  "source": "a collection of fitness landscapes (doi:10.1126/science.1257360)",
  "parents": {"B1": {"name": "PhoQ; a variant is named by its letters at X, in order, P23837 (parent)", "chain": "MKKLLRLFFPLSLRVRFLLATAAVVLVLSLAYGMVALIGYSVSFDKTTFRLLRGESNLFYTLAKWENNKLHVELPENIDKQSPTMTLIYDENGQLLWAQRDVPWLMKMIQPDWLKSNGFHEIEADVNDTSLLLSGDHSIQQQLQEVREDDDDAEMTHSVAVNVYPATSRMPKLTIVVVDTIPVELKSSYMVWSWFIYVLSANLLLVIPLLWVAAWWSLRPIEALAKEVRELEEHNRELLNPATTRELTSLVRNLNRLLKSERERYDKYRTTLTDLTHSLKTPLXXLQXXLRSLRSEKMSVSDAEPVMLEQISRISQQIGYYLHRASMRGGTLLSRELHPVAPLLDNLTSALNKVYQRKGVNISLDISPEISFVGEQNDFVEVMGNVLDNACKYCLEFVEISARQTDEHLYIVVEDDGPGIPLSKREVIFDRGQRVDTLRPGQGVGLAVAREITEQYEGKIVAGESMLGGARMEVIFGRQHSAPKDE"}},
  "note": "This is one part of the list.",
  "data": [
    {"variants_of": "B1", "assay": "enrichment ratio after two sorts for PhoP signalling (ratio (wild type AVST 3.29)); higher = more functional", "settings": "with PhoP (E. coli)", "values": [
      {"variant": "AKVH", "enrichment ratio": 0.853},
      {"variant": "YPER", "enrichment ratio": "≤ 0.25"},
      {"variant": "FGMK", "enrichment ratio": "≤ 0.25"},
      {"variant": "ARHG", "enrichment ratio": "≤ 0.25"},
      {"variant": "ACFR", "enrichment ratio": "≤ 0.25"},
      {"variant": "QTIG", "enrichment ratio": "≤ 0.25"},
      {"variant": "IGHC", "enrichment ratio": "≤ 0.25"},
      {"variant": "YDDN", "enrichment ratio": "≤ 0.25"},
      {"variant": "MDKI", "enrichment ratio": "≤ 0.25"},
      {"variant": "QYAY", "enrichment ratio": "≤ 0.25"},
      {"variant": "ANIT", "enrichment ratio": "≤ 0.25"},
      {"variant": "LRFH", "enrichment ratio": "≤ 0.25"},
      {"variant": "VYFK", "enrichment ratio": "≤ 0.25"},
      {"variant": "WANR", "enrichment ratio": "≤ 0.25"},
      {"variant": "MVDD", "enrichment ratio": "≤ 0.25"},
      {"variant": "DSQV", "enrichment ratio": "≤ 0.25"},
      {"variant": "HRMN", "enrichment ratio": "≤ 0.25"},
      {"variant": "MHEM", "enrichment ratio": "≤ 0.25"},
      {"variant": "SVER", "enrichment ratio": "≤ 0.25"},
      {"variant": "QVHC", "enrichment ratio": "≤ 0.25"},
      {"variant": "MRYT", "enrichment ratio": "≤ 0.25"},
      {"variant": "NNTR", "enrichment ratio": "≤ 0.25"},
      {"variant": "YFWD", "enrichment ratio": "≤ 0.25"},
      {"variant": "AFYC", "enrichment ratio": "≤ 0.25"},
      {"variant": "TRCQ", "enrichment ratio": 5.19},
      {"variant": "DDYP", "enrichment ratio": "≤ 0.25"},
      {"variant": "YFPA", "enrichment ratio": "≤ 0.25"},
      {"variant": "WPGA", "enrichment ratio": "≤ 0.25"},
      {"variant": "WTVI", "enrichment ratio": "≤ 0.25"},
      {"variant": "ISHE", "enrichment ratio": "≤ 0.25"},
      {"variant": "NEAP", "enrichment ratio": "≤ 0.25"},
      {"variant": "NVTY", "enrichment ratio": "≤ 0.25"},
      {"variant": "GEYC", "enrichment ratio": "≤ 0.25"},
      {"variant": "VEKS", "enrichment ratio": "≤ 0.25"},
      {"variant": "ALCF", "enrichment ratio": 13.2},
      {"variant": "SPAM", "enrichment ratio": "≤ 0.25"},
      {"variant": "VKYP", "enrichment ratio": "≤ 0.25"},
      {"variant": "FRSV", "enrichment ratio": "≤ 0.25"},
      {"variant": "DKFV", "enrichment ratio": "≤ 0.25"},
      {"variant": "QASY", "enrichment ratio": "≤ 0.25"},
      {"variant": "WVFQ", "enrichment ratio": "≤ 0.25"},
      {"variant": "KEII", "enrichment ratio": "≤ 0.25"},
      {"variant": "YQGW", "enrichment ratio": "≤ 0.25"},
      {"variant": "EKKA", "enrichment ratio": "≤ 0.25"},
      {"variant": "IPSR", "enrichment ratio": "≤ 0.25"},
      {"variant": "LEGY", "enrichment ratio": "≤ 0.25"},
      {"variant": "KAPV", "enrichment ratio": "≤ 0.25"},
      {"variant": "HKPR", "enrichment ratio": "≤ 0.25"},
      {"variant": "PHMH", "enrichment ratio": "≤ 0.25"},
      {"variant": "FRNG", "enrichment ratio": "≤ 0.25"},
      {"variant": "LIFY", "enrichment ratio": "≤ 0.25"},
      {"variant": "DQLL", "enrichment ratio": "≤ 0.25"},
      {"variant": "KYKQ", "enrichment ratio": "≤ 0.25"},
      {"variant": "LDKR", "enrichment ratio": "≤ 0.25"},
      {"variant": "DSGY", "enrichment ratio": "≤ 0.25"},
      {"variant": "QYHM", "enrichment ratio": "≤ 0.25"},
      {"variant": "HQDA", "enrichment ratio": "≤ 0.25"},
      {"variant": "RGED", "enrichment ratio": "≤ 0.25"},
      {"variant": "MMEV", "enrichment ratio": "≤ 0.25"},
      {"variant": "INFK", "enrichment ratio": "≤ 0.25"},
      {"variant": "PKWC", "enrichment ratio": "≤ 0.25"},
      {"variant": "GDVT", "enrichment ratio": 5.28},
      {"variant": "SCRA", "enrichment ratio": "≤ 0.25"},
      {"variant": "TQMT", "enrichment ratio": 14.6},
      {"variant": "VWTV", "enrichment ratio": "≤ 0.25"},
      {"variant": "PIDN", "enrichment ratio": "≤ 0.25"},
      {"variant": "AWVN", "enrichment ratio": "≤ 0.25"},
      {"variant": "EFQG", "enrichment ratio": "≤ 0.25"},
      {"variant": "AFYM", "enrichment ratio": "≤ 0.25"},
      {"variant": "YDFD", "enrichment ratio": "≤ 0.25"},
      {"variant": "YAHW", "enrichment ratio": "≤ 0.25"},
      {"variant": "GTLL", "enrichment ratio": 12.4},
      {"variant": "NKDF", "enrichment ratio": "≤ 0.25"},
      {"variant": "TDGH", "enrichment ratio": 1.65},
      {"variant": "IEHT", "enrichment ratio": "≤ 0.25"},
      {"variant": "MVQC", "enrichment ratio": "≤ 0.25"},
      {"variant": "EDNM", "enrichment ratio": "≤ 0.25"},
      {"variant": "IYKP", "enrichment ratio": "≤ 0.25"},
      {"variant": "DDCK", "enrichment ratio": "≤ 0.25"},
      {"variant": "FRAF", "enrichment ratio": "≤ 0.25"},
      {"variant": "WPKF", "enrichment ratio": "≤ 0.25"},
      {"variant": "DIIF", "enrichment ratio": "≤ 0.25"},
      {"variant": "DFQN", "enrichment ratio": "≤ 0.25"},
      {"variant": "MWRL", "enrichment ratio": "≤ 0.25"},
      {"variant": "VAWG", "enrichment ratio": "≤ 0.25"},
      {"variant": "ISRI", "enrichment ratio": "≤ 0.25"},
      {"variant": "HPEQ", "enrichment ratio": "≤ 0.25"},
      {"variant": "HQCM", "enrichment ratio": 6.76},
      {"variant": "MLSC", "enrichment ratio": "≤ 0.25"},
      {"variant": "KTCF", "enrichment ratio": "≤ 0.25"},
      {"variant": "RTLY", "enrichment ratio": "≤ 0.25"},
      {"variant": "GEQH", "enrichment ratio": "≤ 0.25"},
      {"variant": "SCNS", "enrichment ratio": "≤ 0.25"},
      {"variant": "VGCN", "enrichment ratio": "≤ 0.25"},
      {"variant": "PYTP", "enrichment ratio": "≤ 0.25"},
      {"variant": "KPNS", "enrichment ratio": "≤ 0.25"},
      {"variant": "EGYC", "enrichment ratio": "≤ 0.25"},
      {"variant": "IIYE", "enrichment ratio": "≤ 0.25"},
      {"variant": "WGAR", "enrichment ratio": "≤ 0.25"},
      {"variant": "GDLR", "enrichment ratio": "≤ 0.25"},
      {"variant": "SQYI", "enrichment ratio": "≤ 0.25"},
      {"variant": "YGVD", "enrichment ratio": "≤ 0.25"},
      {"variant": "PEYP", "enrichment ratio": "≤ 0.25"},
      {"variant": "VDFC", "enrichment ratio": "≤ 0.25"},
      {"variant": "YYRE", "enrichment ratio": "≤ 0.25"},
      {"variant": "WPHK", "enrichment ratio": "≤ 0.25"},
      {"variant": "EFKI", "enrichment ratio": "≤ 0.25"},
      {"variant": "FSFN", "enrichment ratio": "≤ 0.25"},
      {"variant": "DDIG", "enrichment ratio": "≤ 0.25"}
    ]}
  ]
}
